{"source": "the supplement of paper PMC8728848", "binders": {"B1": {"name": "Epa6 (Candida glabrata), Q6DTM7_CANGB (protein)", "chain": "MGSSHHHHHHSSGLVPRGSHMKDDYSSSLSNNNLGWTDPTEFPLGCSPNVTTPKNGLSMELYSYDYLKSGSNPCWDAAYLDPNYPRTGYKSHRLLAKVENVAGNINFYYHAPMGCTSLFDTLPQAYNYRTPLTMTNFTMLLYGYFKPKVTGYHTFTISADDLLFVNFGAGNAFDCCKRESSADDFGNYQAYAVWGSQTAKDDLTVHLDAGLYYPIRIFFNNRDNDGALSLTLKTESDPNPVIDFSDYFYSFDDTKDGCPGLVSYDTS"}}, "experiment_in_all_cases": "glycan array binding signal (z-score within array); higher = stronger binding", "details_in_all_cases": "glycan notation: IUPAC condensed, linker removed", "key": {"[1]": {"target": "Gal(b1-4)GlcNAc(b1-3)Gal(b1-4)GlcNAc(b1-3)Gal(b1-4)GlcNAc(b1-3)Gal(b1-4)GlcNAc(b1-3)Gal(b1-4)GlcNAc(b1-2)Man(a1-3)[Gal(b1-4)GlcNAc(b1-3)Gal(b1-4)GlcNAc(b1-3)Gal(b1-4)GlcNAc(b1-3)Gal(b1-4)GlcNAc(b1-3)Gal(b1-4)GlcNAc(b1-2)Man(a1-6)]Man(b1-4)GlcNAc(b1-4)[Fuc(a1-6)]GlcNAc", "in_short": "(§1)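 Glycan array data came from 3228 arrays in the Consortium for Functional Glycomics database, and only arrays with an available protein sequence were kept. Glycan names were put into IUPAC-condensed notation, and columns mapping to the same glycan were averaged. The binding signal is a within-array Z-score, averaged across arrays of one protein sequence run at different concentrations or buffers and across linkers. A negative Z-score can be read as non-binding.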"}, "[2]": {"target": "Gal(b1-4)GlcNAc(b1-3)Gal(b1-4)GlcNAc(b1-3)Gal(b1-4)GlcNAc(b1-3)Gal(b1-4)GlcNAc(b1-3)Gal(b1-4)GlcNAc(b1-2)[Gal(b1-4)GlcNAc(b1-3)Gal(b1-4)GlcNAc(b1-3)Gal(b1-4)GlcNAc(b1-3)Gal(b1-4)GlcNAc(b1-3)Gal(b1-4)GlcNAc(b1-6)]Man(a1-6)[Gal(b1-4)GlcNAc(b1-3)Gal(b1-4)GlcNAc(b1-3)Gal(b1-4)GlcNAc(b1-3)Gal(b1-4)GlcNAc(b1-3)Gal(b1-4)GlcNAc(b1-2)Man(a1-3)]Man(b1-4)GlcNAc(b1-4)[Fuc(a1-6)]GlcNAc", "in_short": "as §1"}, "[3]": {"target": "Gal(b1-4)GlcNAc(b1-3)Gal(b1-4)GlcNAc(b1-3)Gal(b1-4)GlcNAc(b1-3)Gal(b1-4)GlcNAc(b1-3)Gal(b1-4)GlcNAc(b1-3)Gal(b1-4)GlcNAc(b1-2)Man(a1-3)[Gal(b1-4)GlcNAc(b1-3)Gal(b1-4)GlcNAc(b1-3)Gal(b1-4)GlcNAc(b1-3)Gal(b1-4)GlcNAc(b1-3)Gal(b1-4)GlcNAc(b1-3)Gal(b1-4)GlcNAc(b1-2)Man(a1-6)]Man(b1-4)GlcNAc(b1-4)GlcNAc", "in_short": "as §1"}, "[4]": {"target": "Gal(b1-4)GlcNAc(b1-3)Gal(b1-4)GlcNAc(b1-3)GalNAc", "in_short": "as §1"}, "[5]": {"target": "Gal(b1-4)GlcNAc(b1-3)Gal(b1-4)GlcNAc(b1-3)[Gal(b1-4)GlcNAc(b1-3)Gal(b1-4)GlcNAc(b1-6)]GalNAc", "in_short": "as §1"}, "[6]": {"target": "Gal(b1-4)GlcNAc(b1-3)Gal(b1-4)GlcNAc(b1-6)[Gal(b1-3)]GalNAc", "in_short": "as §1"}, "[7]": {"target": "Gal(b1-4)GlcNAc(b1-3)Gal(b1-4)[Fuc(a1-3)]GlcNAc(b1-3)Gal(b1-4)[Fuc(a1-3)]GlcNAc", "in_short": "as §1"}, "[8]": {"target": "Gal(b1-4)GlcNAc(b1-3)GalNAc", "in_short": "as §1"}, "[9]": {"target": "Gal(b1-4)GlcNAc(b1-3)[Fuc(a1-3)GlcNAc(b1-6)]Gal(b1-4)Glc", "in_short": "as §1"}, "[10]": {"target": "Gal(b1-4)GlcNAc(b1-3)[Gal(b1-4)GlcNAc(b1-6)]Gal(b1-4)GlcNAc", "in_short": "as §1"}, "[11]": {"target": "Gal(b1-4)GlcNAc(b1-3)[GlcNAc(b1-6)]Gal(b1-4)GlcNAc", "in_short": "as §1"}, "[12]": {"target": "Gal(b1-4)GlcNAc(b1-6)Gal(b1-4)GlcNAc", "in_short": "as §1"}, "[13]": {"target": "Gal(b1-4)GlcNAc(b1-6)GalNAc", "in_short": "as §1"}, "[14]": {"target": "Gal(b1-4)GlcNAc(b1-6)[Gal(b1-3)]GalNAc", "in_short": "as §1"}, "[15]": {"target": "Gal(b1-4)GlcNAc(b1-6)[Gal(b1-4)GlcNAc(b1-3)]GalNAc", "in_short": "as §1"}, "[16]": {"target": "Gal(b1-4)GlcNAc6P", "in_short": "as §1"}, "[17]": {"target": "Gal(b1-6)Gal", "in_short": "as §1"}, "[18]": {"target": "Gal3S(b1-3)GalNAc", "in_short": "as §1"}, "[19]": {"target": "Gal3S(b1-3)GlcNAc", "in_short": "as §1"}}, "note": "This is one part of the list.", "data": [{"binder": "B1", "values": [{"measurement": "glycan array binding signal (z-score)", "setting": "[1]", "value": -0.014}, {"measurement": "glycan array binding signal (z-score)", "setting": "[2]", "value": 0.286}, {"measurement": "glycan array binding signal (z-score)", "setting": "[3]", "value": 0.013}, {"measurement": "glycan array binding signal (z-score)", "setting": "[4]", "value": -0.254}, {"measurement": "glycan array binding signal (z-score)", "setting": "[5]", "value": -0.214}, {"measurement": "glycan array binding signal (z-score)", "setting": "[6]", "value": 0.331}, {"measurement": "glycan array binding signal (z-score)", "setting": "[7]", "value": -0.186}, {"measurement": "glycan array binding signal (z-score)", "setting": "[8]", "value": -0.252}, {"measurement": "glycan array binding signal (z-score)", "setting": "[9]", "value": -0.246}, {"measurement": "glycan array binding signal (z-score)", "setting": "[10]", "value": -0.078}, {"measurement": "glycan array binding signal (z-score)", "setting": "[11]", "value": -0.214}, {"measurement": "glycan array binding signal (z-score)", "setting": "[12]", "value": 0.042}, {"measurement": "glycan array binding signal (z-score)", "setting": "[13]", "value": -0.236}, {"measurement": "glycan array binding signal (z-score)", "setting": "[14]", "value": 0.781}, {"measurement": "glycan array binding signal (z-score)", "setting": "[15]", "value": -0.202}, {"measurement": "glycan array binding signal (z-score)", "setting": "[16]", "value": -0.295}, {"measurement": "glycan array binding signal (z-score)", "setting": "[17]", "value": 1.33}, {"measurement": "glycan array binding signal (z-score)", "setting": "[18]", "value": -0.335}, {"measurement": "glycan array binding signal (z-score)", "setting": "[19]", "value": -0.277}]}]}
